Reference: the supplement of paper PMC10498489
The whole screen tested about 2,300 compounds, of which about 330 (14%) showed activity.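 Rule for the calls: active = median modified Z-score above 1.96; inactive = 1.96 or below.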 The list shows a part of the results, in another mix than the full data.

Test system: HepG2 Srxn1-GFP reporter cells (+30 nM CDDO-Me)
Assay: Srxn1-GFP intensity median modified Z-score relative to plate median; higher = stronger NRF2 / oxidative stress reporter activation, active = hit call of the paper
Settings: 10 µM; exposure time: 24h
Procedure, shortened: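 HepG2 Srxn1-GFP BAC reporter cells were seeded at 20,000 per well in 96-well plates and co-exposed for 24 h to compound at 10 μM and an NRF2 activator at 30 nM, with DMSO at ≤0.1%, in three replicate plates. Cells were fixed with formaldehyde, stained with Hoechst and imaged by confocal microscopy, and cytoplasmic GFP was measured per cell, with images holding under 100 cells discarded. The reported value is the median over replicates of each plate's modified Z-score of GFP intensity. For this score, scaling used 1.4826 × median absolute deviation.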

| Compound | Srxn1-GFP intensity median modified Z-score |
| --- | --- |
| CC(C)=CCCC1(C)C=Cc2c(O)c3c(c(CC=C(C)C)c2O1)OC12C(CC4CC1C(C)(C)OC2(C=CC(C)C(=O)O)C4O)C3=O (centres undefined) [euspeclibcmpd1941] | active: 50.9 |
| CC(=O)Oc1ccc(O)cc1 [euspeclibcmpd2324] | active: 5.59 |
| CC(C)C(=O)Nc1ccc([N+](=O)[O-])c(C(F)(F)F)c1 [euspeclibcmpd362] | active: 3.07 |
| Cn1cnc([N+](=O)[O-])c1Sc1ncnc2[nH]cnc12 [euspeclibcmpd29] | active: 2.86 |
| CC(=O)Oc1cc2c(s1)CCN(C(C(=O)C1CC1)c1ccccc1F)C2 (centres undefined) [euspeclibcmpd1049] | inactive: 1.63 |
| O=C(O)CSCC(=O)NC1CCSC1=O (centres undefined) [euspeclibcmpd1212] | inactive: -0.181 |
| CC(C)=CCOc1cc2oc(=O)ccc2cc1O [euspeclibcmpd1409] | inactive: 0.175 |
| Oc1c(C2=CC[C@@H](c3ccc(Cl)cc3)CC2)c(O)c2ccccc2c1O [euspeclibcmpd664] | active: 37.9 |
| C/C=C1\[C@H]2C=C(C)C[C@]1(N)c1ccc(=O)[nH]c1C2 [euspeclibcmpd1407] | inactive: -0.198 |
| O=C(Oc1cccc2cccnc12)c1ccccc1 [euspeclibcmpd773] | active: 12.8 |
| CN1CCC(OC(c2ccccc2)c2ccccc2)CC1 [euspeclibcmpd101] | inactive: -0.234 |
| CC12CCC3C(=CCc4cc(O)ccc43)C1CCC2=O (centres undefined) [euspeclibcmpd1305] | inactive: 0.455 |
| CCC(C)[C@H]1O[C@]2(CC[C@@H]1C)C[C@@H]1C[C@@H](C/C=C(\C)[C@@H](OC3C[C@H](OC)C(O[C@H]4C[C@H](OC)[C@@H](O)[C@H](C)O4)[C@H](C)O3)[C@@H](C)/C=C/C=C3\CO[C@@H]4[C@H](O)C(C)=CC(C(=O)O1)[C@]34O)O2 (some centres undefined) [euspeclibcmpd982] | inactive: 0.921 |
| C[C@H]1COc2c(N3CCN(C)CC3)c(F)cc3c(=O)c(C(=O)O)cn1c23 [euspeclibcmpd2228] | inactive: 0.118 |
| CN(C)CCCN1c2ccccc2CCc2ccccc21 [euspeclibcmpd158] | inactive: 0.664 |
| C=C1CCC2C(CC2(C)C)C(=O)CCC1O (centres undefined) [euspeclibcmpd1623] | inactive: -0.579 |
| COc1ccc(C(C)C(=O)c2ccc(O)cc2O)cc1 (centres undefined) [euspeclibcmpd1599] | active: 3.33 |
| CN(C/C=C/C#CC(C)(C)C)Cc1cccc2ccccc12 [euspeclibcmpd767] | active: 3.24 |
| C[n+]1ccccc1C=NO [euspeclibcmpd2378] | inactive: 0.131 |
